# Test results reported in publication PMC11279629, “Identification of Dihydropyrazolo[1,5-a]pyrazin-4(5H)-ones as Cyclic Products of β-Amidomethyl Vinyl Sulfone Alphavirus Cysteine Protease Inhibitors” (Pharmaceuticals, 2024).
# pIC50: −log10 of the molar value.
# Biological target: CHIKV nsP2 protease (Chikungunya virus, UniProt Q8JUX6)
# Assay: biochemical
smiles,measurement,value
"CCOc1ccccc1-c1cc2n(n1)C(CS(C)(=O)=O)CNC2=O (stereo not shown) [Compound 2, 2-(2-ethoxyphenyl)-7-((methylsulfonyl)methyl)-6,7-dihydropyrazolo[1,5-a]pyrazin-4(5H)-one]",pIC50,< 3.70
